# Measured values reported in PubChem BioAssay AID1347165 (National Center for Advancing Translational Sciences (NCATS), 2019).
# The whole screen tested about 220,000 compounds, of which about 5,700 (2.6%) were called active. This list was built around the results that the source calls inconclusive (neither active nor inactive); the mix of calls is not that of the screen. The call rests on the fitted dose curve; in most records, active means well fitted inhibition curve with a large enough effect; inconclusive means small, poorly fitted or top-dose-only effect; inactive means no such curve, though single readings can be large or run the other way. Where the call is inconclusive, the potency comes from a doubtful curve fit.
# Target: Lysine-specific demethylase 5B (Homo sapiens) (UniProt Q9UGL1)
# Assay: Primary screen for KDM5B Histone Demethylases FDH-coupled qHTS; further: nearly all actives have a fitted effect of over 70% in size; on activity change, negative = inhibition: 0% is about no effect
# Details: FDH-coupled NADH fluorescence (FDH is formaldehyde dehydrogenase); activity change, negative = inhibition: at 57.7 µM (top of the series) unless noted
# Outline: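 Coupled FDH/NAD⁺ fluorescence readout. KDM5BΔAP 200 nM final; compound titration, 10 min RT preincubation; substrate mix 12.5 µM H3K4me3, 25 µM 2-OG, 50 µM Fe(II), 100 µM ascorbate, 0.25 mM NAD⁺, 0.25 U/mL FDH; ΔRFU over 30 min.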
# Potency means the concentration at half of the fitted maximal effect; tags describe the fitted curve by direction and shape.
# UniProt Q9UGL1, sequence (Q9UGL1 whole entry, looked up): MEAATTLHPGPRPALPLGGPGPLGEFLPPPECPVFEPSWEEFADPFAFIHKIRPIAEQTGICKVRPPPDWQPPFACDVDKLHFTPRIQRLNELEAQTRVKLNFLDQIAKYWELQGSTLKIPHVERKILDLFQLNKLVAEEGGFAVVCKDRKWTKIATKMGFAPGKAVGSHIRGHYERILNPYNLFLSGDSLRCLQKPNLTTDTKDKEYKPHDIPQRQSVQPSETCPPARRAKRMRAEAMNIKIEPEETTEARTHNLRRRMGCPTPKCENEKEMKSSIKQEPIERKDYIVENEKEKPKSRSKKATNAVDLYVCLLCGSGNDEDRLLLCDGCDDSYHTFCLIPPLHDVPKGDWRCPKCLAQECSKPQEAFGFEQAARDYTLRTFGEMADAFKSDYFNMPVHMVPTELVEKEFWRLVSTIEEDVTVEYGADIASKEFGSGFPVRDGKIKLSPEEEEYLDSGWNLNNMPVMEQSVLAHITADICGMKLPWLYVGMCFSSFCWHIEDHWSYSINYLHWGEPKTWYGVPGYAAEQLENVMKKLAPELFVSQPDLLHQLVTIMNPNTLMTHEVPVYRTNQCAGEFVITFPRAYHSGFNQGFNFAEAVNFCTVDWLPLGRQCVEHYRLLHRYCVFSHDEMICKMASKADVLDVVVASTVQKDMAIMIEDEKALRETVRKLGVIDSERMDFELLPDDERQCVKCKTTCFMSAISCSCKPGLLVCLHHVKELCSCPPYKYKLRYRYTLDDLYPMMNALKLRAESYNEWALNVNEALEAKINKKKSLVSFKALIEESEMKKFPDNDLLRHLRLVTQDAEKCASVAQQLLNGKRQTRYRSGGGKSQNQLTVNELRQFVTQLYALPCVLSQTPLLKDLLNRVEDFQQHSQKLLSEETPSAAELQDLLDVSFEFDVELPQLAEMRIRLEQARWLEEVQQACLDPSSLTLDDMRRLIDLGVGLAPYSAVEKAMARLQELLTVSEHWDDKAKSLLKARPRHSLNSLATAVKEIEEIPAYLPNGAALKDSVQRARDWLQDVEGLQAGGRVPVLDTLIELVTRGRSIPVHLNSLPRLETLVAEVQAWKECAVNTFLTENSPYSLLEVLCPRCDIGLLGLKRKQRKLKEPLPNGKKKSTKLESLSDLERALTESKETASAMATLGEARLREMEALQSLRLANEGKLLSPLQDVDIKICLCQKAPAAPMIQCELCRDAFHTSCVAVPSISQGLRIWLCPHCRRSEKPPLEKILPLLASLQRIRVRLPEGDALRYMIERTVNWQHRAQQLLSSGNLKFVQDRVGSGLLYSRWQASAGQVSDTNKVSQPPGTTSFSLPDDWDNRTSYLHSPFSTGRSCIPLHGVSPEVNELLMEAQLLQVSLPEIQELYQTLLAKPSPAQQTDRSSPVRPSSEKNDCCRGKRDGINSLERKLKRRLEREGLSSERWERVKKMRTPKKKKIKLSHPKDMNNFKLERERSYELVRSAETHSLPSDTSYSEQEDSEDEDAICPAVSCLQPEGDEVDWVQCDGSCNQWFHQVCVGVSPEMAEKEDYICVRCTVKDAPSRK
Structure (SMILES),"activity change, negative = inhibition",Potency
Cc1ccc(OCC(=O)Nc2ccc3c(c2)nc(CCn2ccccc2=O)n3C)cc1,inactive: 10.7%,
CC(=O)Oc1cc(OC(C)=O)c2c(=O)c(-c3ccc4c(c3)OCCCO4)c(C)oc2c1,,"inconclusive: 39.8 µM [inhibitor, single point]"
COC(=O)C(C)Oc1ccc2c(c1)O/C(=C\c1ccco1)C2=O (stereo unspecified),,"inconclusive: 28.2 µM [inhibitor, partial curve, poor fit]"
COc1ccccc1C(=O)N[C@@H]1CN(Cc2ccccn2)C[C@H]1CN(C)C,,"inconclusive: 25.1 µM [inhibitor, single point]"
COc1ccc2nc(/C=C/c3ccc(OC)c(OC)c3OC)sc2c1,inactive: 13%,
CCc1ccc(C(=O)c2cn(CC(=O)Nc3cccc(OC)c3)c3cc4c(cc3c2=O)OCO4)cc1,,"inconclusive: 28.2 µM [inhibitor, single point]"
O=C(CSc1nnc(-c2ccc(Cl)cc2)o1)c1ccc([N+](=O)[O-])cc1,inactive: 2.32%,
COc1ccc(Oc2ccc(C(F)(F)F)cc2NC(=O)c2ccc(OC)cc2)cc1,,"inconclusive: 39.8 µM [inhibitor, partial curve, poor fit]"
CC(=O)Nc1c(-c2ccc(Cl)cc2)c(=O)c2ccccc2n1C,,"inconclusive: 22.4 µM [inhibitor, single point]"
COC(=O)c1cccc(NC2=NS(=O)(=O)c3ccccc32)c1,inactive: 17.6%,
COc1ccc(NC(=O)C2CC(=O)Nc3nc(N4CCc5ccccc5C4)[nH]c(=O)c32)cc1 (stereo unspecified),inactive: -9.74%,
CC(C)(C)S(=O)(=O)/C(C#N)=C/Nc1ccccn1,inactive: 16.2%,
CN1C(=O)C2(CC(=O)Nc3[nH]ncc32)c2ccccc21 (stereo unspecified),inactive: 6.42%,
Cc1ccc(Nc2c(-c3ccc(C)s3)nc3ccccn23)cc1,,"inconclusive: 31.6 µM [inhibitor, partial curve, poor fit]"
O=C(CN1CCCC1=O)N[C@H]1CN(Cc2ccccc2F)C[C@@H]1C1CC1,,"inconclusive: 39.8 µM [inhibitor, single point]"
CCN1c2cc(C(=O)Nc3ccc(OC)c(F)c3)ccc2C(=O)N2CCCCC21 (stereo unspecified),,"inconclusive: 25.1 µM [inhibitor, partial curve, poor fit]"
Cc1cc(C[C@@H]2COC[C@@H]2NC(=O)c2cc3cc(F)ccc3n2C)on1,,"inconclusive: 31.6 µM [inhibitor, partial curve, poor fit]"
CCC(CC)(CC(=O)Nc1ccccc1NS(=O)(=O)c1ccc(F)cc1)C(=O)O,inactive: 0.472%,
CC(=O)c1ccc(NC(=O)O[C@@H]2CO[C@H]3[C@@H]2OC[C@@H]3NC(=O)Nc2ccc(Oc3ccccc3)cc2)cc1,,"inconclusive: 6.31 µM [inhibitor, single point]"
COc1cccc(-c2ccc(C(=O)O)cc2)c1,,active: 112 µM
Cc1ccc(-n2ncc3c(NC(C)c4ccccc4)ncnc32)cc1 (stereo unspecified),,"inconclusive: 39.8 µM [inhibitor, partial curve, poor fit]"
CN1CC(=O)N(C2CCNCC2)Cc2c(NCCN3CCOCC3)ncnc21,,"inconclusive: 44.7 µM [inhibitor, partial curve]"
Cc1nc(-c2ccc(Cl)cc2)n(Cc2ccc(F)c(F)c2)c(=O)c1CCO,,"inconclusive: 14.1 µM [inhibitor, partial curve]"

Structure (SMILES),"activity change, negative = inhibition",Potency
CN1C(=O)[C@@H]2C[C@@H](CN2C(=O)c2ccccc2)Oc2ccccc21,inactive: -3.45% [at 86.2 µM],
C=CCNC(=O)C1CCN(Cc2ccc(Cl)cc2)CC1,inactive: -2.77%,
Cc1ccc(-c2cc3c(=O)n(CCNC(=O)c4nn(C)c5ccccc45)ccn3n2)c(C)c1,,active: 28.2 µM
COc1cccc(CNC(=O)Cc2c(C)c3c(cc(C)c4c(C)c(C)oc43)oc2=O)c1,,"inconclusive: 14.1 µM [inhibitor, partial curve, poor fit]"
O=S(=O)(c1ccc(Cl)cc1)c1nc(-c2cccs2)oc1SCc1ccc(F)cc1,,"inconclusive: 35.5 µM [inhibitor, single point]"
c1cnc2nc(C3CCN(CC4CCCCC4)C3)[nH]c2c1 (stereo unspecified),,"inconclusive: 31.6 µM [inhibitor, single point]"
CCOc1ccc2nc(SCC(=O)Nc3ccc(F)cc3)nc(-c3ccccc3)c2c1,inconclusive: -30.7% [inhibitor],
Nc1nc(Nc2ccccc2F)nc(-c2cc3ccccc3o2)n1,inactive: -2.21%,
CC1(C)CC2(C)OC(=O)OC2(C)c2ccccc21 (stereo unspecified),inactive: 14.8%,
O=C(CCC[C@H]1NC[C@@H]2C[C@H]1CN(Cc1ccccc1)C2)NCc1ccc(N2CCOCC2)cc1,,"inconclusive: 12.6 µM [inhibitor, partial curve]"
Cc1ccc(C(=O)NC(=S)NNC(=O)C2CC2)cc1,inactive: 3.99%,
CCn1c(C2CCN(C(=O)c3cc(F)cc(F)c3)CC2)nn(C)c1=O,inactive: -16%,
O=[N+]([O-])C(=C(Sc1ccccc1)Sc1ccccc1)/C(Cl)=C(/Cl)Br,,"inconclusive: 8.91 µM [inhibitor, partial curve, poor fit]"
O=C(c1ccncc1)N1CCC(c2nnc3n2CCNC3)CC1,,active: 35.5 µM
COc1ccc(-c2cc(C(=O)O)c3c(C)cc(C)cc3n2)cc1,,"inconclusive: 1 µM [inhibitor, full curve, poor fit]"
Cc1ccc(C(=O)Nc2ccc3oc(-c4ccncc4)nc3c2)cc1C,,"inconclusive: 1.78 µM [inhibitor, full curve, poor fit]"
COc1cc(Br)cc2cc(-c3nc(-c4ccc(C(F)(F)F)cc4)no3)c(=O)oc12,inactive: 12.2%,
COC(=O)c1c(C)[nH]c(C(=O)COc2ccc3ccc(=O)oc3c2)c1C,,"inconclusive: 31.6 µM [inhibitor, single point]"
O=C(CN(C1CCCCC1)S(=O)(=O)c1ccc(Br)cc1)N1CCCCCC1,inactive: 8.27%,
CC(C)NCCNC(=O)c1cccs1,,"inconclusive: 25.1 µM [inhibitor, single point]"
CC(C)(C)c1ccc(C(=O)NCCOc2ccccc2F)cc1,inactive: 18%,
Cc1ccccc1OCC(=N)N,inactive: 13.1%,
Cc1cc(NC(=O)CCn2c(=O)c3cccn3c3cccnc32)ccc1Br,,"inconclusive: 7.94 µM [inhibitor, partial curve, poor fit]"
